The experiment concerns the target T1, human CD47-his protein (Cat #: CD7-H5227, Acro biosystems) (human, UniProt Q08722 in part).
T1 construct: Bought protein
In words: SPR (Biacore T200), sample on Protein A chip, antigen-his analyte, 1:1 fit. (SPR reads the build-up and loss of mass on a sensor chip optically.)

T1 sequence (Q08722 19-139 limits assumed): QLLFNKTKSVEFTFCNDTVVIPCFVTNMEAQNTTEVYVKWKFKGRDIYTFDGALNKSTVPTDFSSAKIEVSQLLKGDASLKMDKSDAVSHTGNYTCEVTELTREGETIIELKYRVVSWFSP

B1: SIRPα-isoform2-Fc (Fc fusion)
chain: [about 120 residues not given here]KPSAPVVSGPAARATPQHTVSFTCESHGFSPRDITLKWFKNGNELSDFQTNVDPVGESVSYSIHSTAKVVLTREDVHSQVICEVAHVTLQGDPLRGTANLSETIRVPPTLEVTQQPVRAENQVNVTCQVRKFYPQRLQLTWLENGNVSRTETASTVTENKDGTYNWMSWLLVNVSAHRDDVKLTCQVEHDGQPAVSKSHDLKVSAHPKEQGSNTAAENTGSNER[human IgG1 Fc not given here]
B1 showed a Kd of 5.52 nM, a koff of 0.00918 s⁻¹ and a kon of 1.66e+06 M⁻¹ s⁻¹.

One may read the Kd as the constant that tells how readily two partners part at equilibrium. High values mean weaker binding, low ones tighter binding. The koff is the first-order rate constant of dissociation. A high value points to fast dissociation. For orientation: kon means the rate constant with which the complex forms. The low end stands for slower complex formation, the high end for faster complex formation.

For the origin of these results see patent US20250109212A1 (BIOSION, published 2025).
